The list shows a part of the results.

The record followed here is the supplement of paper PMC11417369.

The assay concerns PfHDP1 homeodomain (GST-tagged). The assay is described as follows: gcPBM binding intensity (ln(normalized median fluorescence intensity)); higher = stronger DNA binding. In a few lines:
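An Agilent 4 × 180k array carrying primer-extended double-stranded 36-bp intergenic genomic probes and negative controls received GST-tagged P. falciparum DNA-binding domains expressed in E. coli, about 25 μg on average, for 1 h. The binding buffer contained 1× PBS, 1% milk, 0.2 mg/ml BSA, 0.5% salmon testes DNA and 0.03% Triton X-100. Binding intensity is the top Masliner-normalised natural-log median intensity across replicate spots of either probe orientation, read after Alexa488 anti-GST antibody staining and a 488 nm scan.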
For “AATATAAATTTATATTGTACATATTTTATTATATGT [XGTACX_site905]”, the “gcPBM binding intensity (ln)” value turned out to be 6.37.
Consider “GTCACAAAATAAATTAAACACACAACATCATATATG [CACACA_site8182]”, for which the “gcPBM binding intensity (ln)” value was 6.77.
In the case of “AAAATAAGGACTGTTGTGCACTGGATTTGTGGTTAC [GTGCAC_site9830]” it was 10.
Then “AAAAAAAAAAACAGTTGTACATTTATTTATATATTA [XGTACX_site217]”, with 6.14; and “GACATAAGATAATTACACATTGTTTCCTCAATAATA [CACACA_negctrl_site1616]”, with 6.41.
Then “TAAGTAAAAAATTAAAAAGATTACAGGGGGGGAAGG [XGTACX_negctrl_site491]”, with 7.37; and “ATTTTAACGAATATATGTACATAAAAAAAAAAAAGA [XGTACX_site8750]”, with 6.73.
With “AATACATACAGACACACACACACATATAAATAAATA [CACACA_site7642]”, the “gcPBM binding intensity (ln)” value is 7.05.
Then “GCTCATTGAAGTTATACACACCAAATATGTAAATAT [CACACA_site7217]”, with 6.68; and “ACATATCTACACAGTGGTACTTCCATTAATATATAC [XGTACX_site3827]”, with 6.72; and “AAAAGGGATAAATGTGCGCACATGTTATATATATAT [GTGCAC_site9534]”, with 9.12.
As for “AACAATGTTGTACATACACACACACTAATAAAAAAT [CACACA_site8758]”, the “gcPBM binding intensity (ln)” value was 6.97.
Then “TCATAAATTAAACAAACACACACGTTCTTTTATTTA [CACACA_site713]”, with 6.22.
Then “ATTTATTCAAATGGTTGTACTACAAATAAACATTAT [XGTACX_site3378]”, with 6.71; and “ATAACAAAATAAAACACACACACAAATGTACAGATA [CACACA_site5358]”, with 6.89; and “TATTCATGTTTAAAAAGTACATATTATGGTAACATT [XGTACX_site4533]”, with 6.23.
In the case of “ATTTTTGTGTTTACACGTACGTGTAAATTATTTTTC [XGTACX_site1869]” it was 6.88.
“TCCTTTTCTTAATTTAAAAAATATAAAAAAAACGAA [CACACA_negctrl_site1821]”: the “gcPBM binding intensity (ln)” value worked out at 6.11.
Then “AGAAGCATACATCAAGCACACACACCCACACCCACA [CACACA_site8014]”, with 6.6; and “ACACGTTTATATAAAAAATTAAAATTTTTCTTATTT [CACACA_negctrl_site1523]”, with 6.52; and “CATAATTTACATAAAAGTACATATATATTAATGACG [XGTACX_site6247]”, with 6.52.
Then “TTAAATAAAATTTATTGTACATAAAATTAAATATAG [XGTACX_site3039]”, with 6.26.
In the case of “ATATAATATGGTATTACACACTGTTATAAGTATGGC [CACACA_site2094]” it was 6.39; in that of “CATAAATACACTGTAGCGCACACGGCCAAAAAAAAA [CACACA_site8537]”, 7.06.
In the case of “AATATTTAAGTACTGGTGCGTGTATATAATGATTAA [GTGCAC_site9633]”, the “gcPBM binding intensity (ln)” value is 7.48.
In the case of “ATAAATAAAATATGCACACAAATATAGGAAACAACA [CACACA_site2561]” it was 10.1; in that of “AAACTTGTAAGAAACACACACACACGCATATAAATA [CACACA_site6518]”, 7.1; in that of “GTAAAAAAAGAGCACACACACAAAAACACCCACAAA [CACACA_site1292]”, 7.15.
For the sequence “TTTATTCCCGCATATAGTACATATACCATTTAATGT [XGTACX_site7011]”, the “gcPBM binding intensity (ln)” value worked out at 7.07.
Regarding “TTTTTTCTTTTTATAACACACAGGTGAAAAATAATA [CACACA_site1850]”, the “gcPBM binding intensity (ln)” value came out at 6.39.
In the case of “TTTCCTCATTTTATCATACACACTTGTTTATATGTG [CACACA_site8202]” it was 6.65; in that of “TCCTGTTGAGAATGGCGTACATATAAATATTATATA [XGTACX_site1841]”, 6.32; in that of “AAATAATAAATATATCGTACAAATATCATATATAAA [XGTACX_site2771]”, 6.3.
In the case of “CAGGTTCTTATATAGTGTACTATAGACATTCAATTG [XGTACX_site7239]” it was 6.4; in that of “TATTACTTTATATATACACACATATAACATAAATGC [CACACA_site3948]”, 6.81; in that of “TAAATAATAATAAAATGTACATTATATATGTATATG [XGTACX_site8672]”, 6.52.
Then “TTTTTTTTTTTTTTCTGTACTGATACTTATAGAGTT [XGTACX_site4736]”, with 6.29; and “AAAAAAATAAATAAGACACACACAAAAAAAAAAAAA [CACACA_site8404]”, with 6.36.
Turning to “TCTTGTTATAATAATCAATATATGGGTATACTTATG [CACACA_negctrl_site1618]”, the “gcPBM binding intensity (ln)” value is 6.59.
In the case of “AAAAGGATTTTTTATACACACACTAACTAATGTATA [CACACA_site2356]” it was 6.38; in that of “AATAAAAAATAAAAAAGTACATGATGAAAAGGTTTA [XGTACX_site7615]”, 6.8.
Then “TCCCTGATGTTATTTAATATACCATAAAAAAAAAAA [CACACA_negctrl_site1472]”, with 6.11; and “ATCTCAAATATAATAAATTATTAGGTATATATATAT [CACACA_negctrl_site1828]”, with 8.77.
Then “TATATATATATATATACATGCATACAATTTTATGAG [TGCATGCA_site466]”, with 9.23; and “CACACTTTATAATGTTGTACGATACATTATACCAAA [XGTACX_site941]”, with 6.45; and “ACCCATATTCTTTTTACACACTTGAATAAAAAATAT [CACACA_site4797]”, with 6.67.
With “GAGATATAAAAGTGTACACATATTGTTATCCATATT [CACACA_site5441]”, the “gcPBM binding intensity (ln)” value was 6.49.
Then “ATATACTTACATATTACACACAATATTTTTAAATGG [CACACA_site5916]”, with 6.79; and “TATTTATAATTAAATACACACATATATTATAGATTT [CACACA_site6435]”, with 6.45.
In the case of “TTGTATATACTATACACACACATACATACATACATA [CACACA_site814]” it was 6.93; in that of “CTTTTGCCCAAAAAGGTACACACCACAAAGTACATA [CACACA_site8169]”, 6.81.
Then “TTTTATTCATCATATTGTACATTCTTGTATTTATAG [XGTACX_site8534]”, with 6.59.
As for “CCAAACAAAAAAAAAAGTACATAAAACACCTATTTG [XGTACX_site5645]”, the “gcPBM binding intensity (ln)” value stood at 6.45.
Then “ATAATTAGGGTGTATTTCATTTCATTTCATTTTATT [CACACA_negctrl_site1418]”, with 6.69; and “AATATATAAATATATACACACAAAAACATATATATA [CACACA_site1318]”, with 6.68; and “TATATACAAATATGTACACACATTACAGATGTACAT [CACACA_site6586]”, with 6.82.
Then “TAGAAAAAATAAAATAGTACACATCCAAAAAAAAAA [XGTACX_site7829]”, with 6.45; and “ATAATAAATGTCTTCAATGAAGTGGAAATGCTGTTA [TGCATGCA_negctrl_site238]”, with 6.36; and “ATATATACATAGAATTGTACATAATTTATGTTCATT [XGTACX_site7426]”, with 6.16.
In the case of “GATATAAACGTATATGTACATATATATATATATATA [GTGCAC_negctrl_site186]” it was 9.35; in that of “TTGGAGTTCATATGTGGTACACATTTAAATATATTT [XGTACX_site5582]”, 6.5; in that of “AACGTATTATTTATCTGTACAAAATAATAACGTATT [XGTACX_site813]”, 6.22.
For the sequence “ATCCAAATTAATAATAGTACTTTTAAGTCCTATGTA [XGTACX_site2452]”, the “gcPBM binding intensity (ln)” value came out at 5.77.
Then “TAAATAAAAATACAGTGTACTTTTTTCTATTTAAAA [XGTACX_site3288]”, with 5.85.
Then “TTTTGTTTTTTCAATGTGCACTTAGGATGTTTTTAT [GTGCAC_site9565]”, with 9.59; and “CAAACAAATTGTGAAACACACATATATATATATATA [CACACA_site2001]”, with 9.39; and “AATGATATATTTAAATGTACACATGAAATATAATAT [XGTACX_site2678]”, with 6.71.
In the case of “TATCTTCAAGTATGTACACACTATATATAATAAAAT [CACACA_site5368]” it was 6.73; in that of “TTATATTTGATAGTTTGTACATATAATTATTATCAT [XGTACX_site5676]”, 6.68; in that of “ATAATTACATTCCATACACACATATATTTAAAGGTT [CACACA_site7403]”, 6.86.
Turning to “TTCTTGTTCCTGAAAGTGCATATAACAAAAATAACA [GTGCAC_site9635]”, the “gcPBM binding intensity (ln)” value was determined as 8.06.
In the case of “TATATAAAAATATACACACACAAATGTATATATATA [CACACA_site220]” it was 7.45; in that of “TACATACATACATACACACACATATAGATTTATATA [CACACA_site6999]”, 7.43.
Then “ATATATATATATATATCACACATTAATAATATATAT [CACACA_site5081]”, with 9.24; and “ATCAATCATGGTTTTACACACACATGCATGTGAAAA [CACACA_site1350]”, with 6.78; and “TCTTTATTATTCGCCACACACATATAAATATAAATA [CACACA_site7441]”, with 7.28.
In the case of “AAAACATAACATTGTTGTACTACTAATAAAATAAGT [XGTACX_site6149]” it was 6.55; in that of “ATAATTTTGTATAATTGTACATTATTTTAAATAAAT [XGTACX_site7952]”, 6.36; in that of “TTTTTTTTTTTTTTTAAACACACGGTGTGAAAATTA [CACACA_site3818]”, 6.46.
Consider “ATTTGATAGACACATGCACACATGCAATACTTTATT [CACACA_site5633]”, for which the “gcPBM binding intensity (ln)” value was 9.05.
Then “TTTTCTGTGTTTACATGTACGAAAGATTAATATTAT [XGTACX_site5214]”, with 6.7; and “TTATCATATCATGGAAGTACAAATAAAATATATAAC [XGTACX_site1608]”, with 7.06.
As for “ATATGCACTTTTTGCACACGTATGAATAACAAAATA [CACACA_site1810]”, the “gcPBM binding intensity (ln)” value came out at 11.2.
Then “GATGAATAATATGTATGTACATATGCATTATGATGT [XGTACX_site7655]”, with 6.73; and “ACATATAGATAAATATGTACATATATATATATATAT [XGTACX_site1806]”, with 9.16.
As to “AGTAGAATATCCCCTACACACCCAAGTAATTTACAA [CACACA_site6708]”, the “gcPBM binding intensity (ln)” value stood at 7.22.
As for “AAATGTGAAAAAGAGTGTACCCGACTTGAAATTAAG [XGTACX_site8621]”, the “gcPBM binding intensity (ln)” value was found to be 6.92.
In the case of “TTTAATTTTCAATGGCGTACATATAAAATATTATAT [XGTACX_site1672]” it was 6.14.
